Data from PubChem BioAssay (NCATS).
Inconclusive means that the source gave no clear call. Such entries were picked first, then a sample of the others. For part of these data: Potencies beside an inconclusive call are fits to weak or partial responses and may not hold up. Active and inactive are the calls of the source. Unless noted, calls follow the shape of the dose curve; as a rule, active = well fitted curve in the direction sought with a large enough effect; inconclusive = small, poorly fitted or top-dose-only effect, or another doubt; inactive = no such curve, though single readings can be large; an effect the other way counts as inactive or inconclusive.

Legend:
[1] = molecular target: Cytochrome P450 2D6 (Homo sapiens) (UniProt P10635); test: qHTS Assay for Inhibitors and Substrates of Cytochrome P450 2D6 (AID 891);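 also: luciferin methyl ether substrate demethylated by CYP2D6 with NADPH regeneration; top concentration of the series differs between compounds; % is scaled to controls: 0 for no effect and ±100 for the full control effect; nearly all actives have a fitted effect of over 60% in size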
Chain of UniProt P10635 (P10635 whole entry, looked up): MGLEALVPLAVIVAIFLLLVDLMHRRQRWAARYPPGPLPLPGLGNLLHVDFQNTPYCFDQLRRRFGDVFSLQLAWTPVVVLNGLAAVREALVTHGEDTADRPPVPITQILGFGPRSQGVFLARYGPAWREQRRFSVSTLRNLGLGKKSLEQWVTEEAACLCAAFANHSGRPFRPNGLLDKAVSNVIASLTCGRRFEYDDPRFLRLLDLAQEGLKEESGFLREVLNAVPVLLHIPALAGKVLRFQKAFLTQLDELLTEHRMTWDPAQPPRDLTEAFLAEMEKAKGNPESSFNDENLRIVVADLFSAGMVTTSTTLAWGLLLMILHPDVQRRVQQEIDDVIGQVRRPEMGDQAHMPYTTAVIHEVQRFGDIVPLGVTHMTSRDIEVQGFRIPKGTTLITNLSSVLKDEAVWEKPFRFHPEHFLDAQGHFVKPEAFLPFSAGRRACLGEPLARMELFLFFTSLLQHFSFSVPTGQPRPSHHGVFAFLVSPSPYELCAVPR
Outline: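 Human CYP2D6 (5 nM) with 30 uM Luciferin-ME EGE (at Km) in 100 mM KPO4, compound preincubated 10 min, then NADPH regeneration system for 60 min at room temperature. Luciferin read by luminescence; normalized to 1.43 uM quinidine.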

[2] = qHTS Assay for Identification of Small Molecule Antagonists for NFkB Signaling Pathway (AID 895; active = well fitted inhibition curve with a large enough effect in the signal ratio, with a control signal flat, not every such curve was filed as active; inconclusive = small, poorly fitted or top-dose-only effect, or effect the other way, or a change in a side signal; the % refers to the signal ratio; also: potency is read from the fitted curve at half-maximal effect); conditions: NFkB beta-lactamase reporter cells, FRET ratio 460/530, stimulated with 10 pM TNF alpha; activity change, negative = inhibition: at 38.3 µM (top of the series)
Outline: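 ME-180 NFkB-bla cells (beta-lactamase under NFkB response element), plated overnight, treated with compound then 10 pM TNF alpha (about EC50) for 5 hrs at 37 C. LiveBLAzer FRET read at 460/530 nm emission, 405 nm excitation.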

[3] = qHTS Assay for Identification of Small Molecule Agonists for Hypoxia Response Element Signaling Pathway (AID 914; active = well fitted activation curve with a large enough effect in the signal ratio, with a control signal flat, not every such curve was filed as active; inconclusive = small, poorly fitted or top-dose-only effect, or effect the other way, or a change in a side signal; the % refers to the signal ratio; also: top concentration of the series differs between compounds; % of control where 0% means no effect); conditions: ME-180 (cervical carcinoma) HRE-bla reporter, beta-lactamase ratio, CoCl2, 17 h; activation: stronger effect = higher value
Outline: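 In Opti-MEM containing 0.5% dialyzed FBS and 10 mM HEPES, ME-180 HRE-bla cells received a compound titration and EC50 CoCl2. They were incubated 17 hours, then CCF4-loaded 2.5 hours at room temperature before ratio reading.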

[4] = qHTS Assay for Identification of Small Molecule Antagonists for Thrombopoietin (TPO) Signaling Pathway (AID 918); conditions: TPO-dependent cell signaling reporter, antagonist mode; activity change, negative = inhibition: at 38.5 µM (top of the series); also: nearly all actives have a fitted effect of over 60% in size
Outline: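 Murine Ba/F3 cells stably expressing human TPO receptor and a Glycoprotein IIb promoter–luciferase reporter were IL-3-starved overnight, treated with compounds plus TPO (26 pM final, its EC50) for 24 hrs at 37 C, then read by luminescence.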

[5] = qHTS Assay for Lipid Storage Modulators (AID 1519; calls by dose curve; also: % is scaled to controls: 0 for no effect and ±100 for the full control effect); conditions: Drosophila S3 cells, BODIPY lipid droplet/cell ratio, laser cytometry, cells loaded with oleic acid; activity change, negative = inhibition: at 57.5 µM (top of the series) unless noted
Outline: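 Cells seeded at 5,000 per well were treated with compounds over a concentration series and loaded with oleic acid (400 uM, as added). Lipid droplet fluorescence (488 nm excitation, 500-530 nm channel) was read by laser-scanning cytometry and normalized to 20 uM Triacsin C.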

[6] = molecular target: Endonuclease 4 (Escherichia coli (strain K12)) (UniProt P0A6C1); test: Counterscreen for APE1 Inhibitors: qHTS Validation Assay for Inhibitors of Endonuclease IV (AID 1708); also: % is scaled to controls: 0 for no effect and ±100 for the full control effect
Outline: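 Cleavage of a quenched abasic-site DNA duplex (50 nM, 5'-TAMRA, 3'-BHQ-2) by 2 nM enzyme is followed as fluorescence increase. Compounds are preincubated with enzyme 15 min at room temperature before substrate addition.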

[7] = molecular target: RecQ-like DNA helicase BLM (Homo sapiens) (UniProt P54132); test: qHTS Validation Assay for Inhibitors of Bloom's syndrome helicase (BLM) (AID 2364); also: potency is read from the fitted curve at half-maximal effect
Chain of UniProt P54132 (P54132 whole entry, looked up): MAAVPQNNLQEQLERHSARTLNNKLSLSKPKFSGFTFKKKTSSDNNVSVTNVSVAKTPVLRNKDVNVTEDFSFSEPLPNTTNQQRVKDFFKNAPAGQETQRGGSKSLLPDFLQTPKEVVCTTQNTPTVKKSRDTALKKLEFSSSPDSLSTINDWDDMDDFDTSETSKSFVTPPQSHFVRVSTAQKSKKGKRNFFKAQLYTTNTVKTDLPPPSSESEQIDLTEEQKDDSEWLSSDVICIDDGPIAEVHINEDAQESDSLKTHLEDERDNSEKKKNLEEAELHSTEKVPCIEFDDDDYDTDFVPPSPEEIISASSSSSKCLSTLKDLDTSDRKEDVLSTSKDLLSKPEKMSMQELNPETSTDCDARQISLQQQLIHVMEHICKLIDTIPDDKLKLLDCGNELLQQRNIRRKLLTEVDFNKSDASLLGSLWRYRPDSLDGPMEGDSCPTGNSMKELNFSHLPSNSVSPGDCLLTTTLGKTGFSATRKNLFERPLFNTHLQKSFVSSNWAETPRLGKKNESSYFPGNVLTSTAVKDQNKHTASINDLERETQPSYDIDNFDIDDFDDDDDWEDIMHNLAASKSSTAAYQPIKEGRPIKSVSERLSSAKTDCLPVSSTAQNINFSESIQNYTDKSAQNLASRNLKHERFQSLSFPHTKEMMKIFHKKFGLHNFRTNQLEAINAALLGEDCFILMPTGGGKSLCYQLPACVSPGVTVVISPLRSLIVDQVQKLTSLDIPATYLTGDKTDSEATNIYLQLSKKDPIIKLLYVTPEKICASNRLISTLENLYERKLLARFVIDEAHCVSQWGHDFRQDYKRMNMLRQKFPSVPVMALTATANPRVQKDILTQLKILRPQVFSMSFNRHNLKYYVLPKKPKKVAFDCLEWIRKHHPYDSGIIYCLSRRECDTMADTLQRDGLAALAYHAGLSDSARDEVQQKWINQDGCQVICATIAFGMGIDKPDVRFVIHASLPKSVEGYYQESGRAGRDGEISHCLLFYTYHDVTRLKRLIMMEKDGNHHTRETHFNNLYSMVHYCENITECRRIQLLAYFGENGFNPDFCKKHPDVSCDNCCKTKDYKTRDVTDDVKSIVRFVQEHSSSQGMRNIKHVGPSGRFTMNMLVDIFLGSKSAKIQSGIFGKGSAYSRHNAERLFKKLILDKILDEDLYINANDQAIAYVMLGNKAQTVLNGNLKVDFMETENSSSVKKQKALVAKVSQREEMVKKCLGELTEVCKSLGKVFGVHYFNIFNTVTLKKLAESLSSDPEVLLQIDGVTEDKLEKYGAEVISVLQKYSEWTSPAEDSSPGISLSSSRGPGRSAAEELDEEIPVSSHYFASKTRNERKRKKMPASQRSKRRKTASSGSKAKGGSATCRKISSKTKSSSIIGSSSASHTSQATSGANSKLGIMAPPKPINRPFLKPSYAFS
Outline: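 50 nM BLM preincubated 15 min at room temperature with compound in pH 8.0 Tris buffer containing 2.5 ug/ml poly(dI-dC); started with 200 nM TAMRA/BHQ-2 forked duplex and 2 mM ATP (final). Unwinding read as TAMRA fluorescence increase, two reads 2 h apart.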

[8] = Validation screen for small molecules that induce DNA re-replication in MCF 10A normal breast cells (AID 463097); also: 0% is about no effect; nearly all actives have a fitted effect of over 60% in size
Outline: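 Image-based qHTS: normal breast cells are incubated with compound for 48 hr, stained with Hoechst, and scanned for total nuclear fluorescence. Compounds raising the fraction of nuclei with elevated DNA content count as re-replication inducers.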

[9] = qHTS Validation Assay to Find Inhibitors of Chronic Active B-Cell Receptor Signaling (AID 485345; active = well fitted curve in the direction sought with a large enough effect in the main read-out, with a control signal flat, not every such curve was filed as active; inconclusive = small, poorly fitted or top-dose-only effect, or effect the other way, or a change in a side signal; inactive = no such curve, though single readings can be large or run the other way;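 also: 0% = untreated basal cells and 100% = 10 µM MG-132 proteasome inhibitor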); conditions: ABC-DLBCL cells, chronic BCR signaling reporter, CBG luciferase; at 46.1 µM (top of the series)
Outline: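 TMD8 ABC-DLBCL cells stably carrying doxycycline-inducible IkappaBalpha–green luciferase fusion plus unfused red luciferase; compounds 46 uM to 3 nM, 4 h at 37C with doxycycline. Corrected green/red luminescence ratio normalized to 10 uM MG-132 and basal cell wells; curves fitted.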

[10] = molecular target: ATP-dependent 6-phosphofructokinase (Trypanosoma brucei brucei) (UniProt O15648); test: qHTS Validation Assay to Find Inhibitors of T. brucei phosphofructokinase (AID 485368); also: potency is read from the fitted curve at half-maximal effect
Chain of UniProt O15648 (O15648 whole entry, looked up): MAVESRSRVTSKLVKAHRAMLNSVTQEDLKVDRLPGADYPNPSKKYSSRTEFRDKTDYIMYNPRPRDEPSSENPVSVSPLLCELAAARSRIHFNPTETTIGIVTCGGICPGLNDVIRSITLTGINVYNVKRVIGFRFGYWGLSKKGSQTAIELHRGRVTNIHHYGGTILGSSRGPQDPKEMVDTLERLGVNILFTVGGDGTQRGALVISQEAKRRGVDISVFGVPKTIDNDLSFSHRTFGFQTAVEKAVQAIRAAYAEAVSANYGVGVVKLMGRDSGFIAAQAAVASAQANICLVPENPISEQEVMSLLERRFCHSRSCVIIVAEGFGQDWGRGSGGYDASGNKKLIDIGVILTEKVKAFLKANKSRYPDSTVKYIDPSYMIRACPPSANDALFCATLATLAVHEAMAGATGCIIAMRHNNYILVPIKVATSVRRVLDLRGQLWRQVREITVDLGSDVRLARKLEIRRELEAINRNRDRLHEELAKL
Outline: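 Enzyme reaction in triethanolamine buffer pH 8.0 with 5 mM MgCl2, 0.01% Tween20 and 0.1% BSA; PFK 1.25 nM, F6P 0.5 mM, ATP 0.1 mM, 45 min RT. ADP quantified by ADP-Glo.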

[11] = Quantitative high throughput screen for delayed death inhibitors of the malarial parasite plastid, 48 hour incubation (AID 488752); also: % is scaled to controls: 0 for no effect and ±100 for the full control effect; nearly all actives have a fitted effect of over 65% in size
Outline: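 Erythrocytes infected with P. falciparum carrying an integrated firefly luciferase reporter (2% hematocrit, 0.1% parasitemia final) were exposed to compounds in RPMI 1640/0.5% Albumax for 48 h at 37 C, 5% CO2. Growth inhibition was scored as reduced luminescence.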

[12] = Validation screen for small molecules that induce genotoxicity in human embryonic kidney (HEK293T) cells expressing luciferase-tagged ELG1 (AID 493106); also: potency is read from the fitted curve at half-maximal effect
Outline: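 HEK293T cells expressing luciferase-tagged ELG1 were exposed to compound or DMSO vehicle for 16 hr at 37 °C, 5% CO2. Genotoxic stress raises ELG1 levels, so increased luciferase signal after ONE-Glo addition and 30 min at room temperature marks hits.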

[13] = molecular target: ATPase family AAA domain-containing protein 5 (Homo sapiens) (UniProt Q96QE3); test: Validation screen for small molecules that inhibit ELG1-dependent DNA repair in human embryonic kidney (HEK293T) cells expressing luciferase-tagged ELG1 (AID 493107); conditions: HEK293T ELG1-luciferase level, luminescence, 5-fluorouridine co-treatment, 16 h; activity change, negative = decrease: at 46.1 µM (top of the series); also: potency is read from the fitted curve at half-maximal effect; nearly all actives have a fitted effect of over 70% in size
Outline: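 HEK293T cells expressing luciferase-tagged ELG1 were co-treated with 5-fluorouridine and compound or DMSO for 16 hr at 37 °C, 5% CO2. Luciferase activity was then read with ONE-Glo after 30 min at room temperature; suppressed signal indicates blocked ELG1 function.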

[14] = Nrf2 qHTS screen for inhibitors: Validation (AID 493153; active = well fitted inhibition curve with a large enough effect in the main read-out, with a control signal flat, not every such curve was filed as active; inconclusive = small, poorly fitted or top-dose-only effect, or effect the other way, or a change in a side signal; inactive = no such curve, though single readings can be large or run the other way; also: potency is read from the fitted curve at half-maximal effect)
Outline: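 A549 cells carrying an ARE-driven firefly luciferase reporter, in 5% FBS OPTI-MEM, were treated with compounds in concentration-response for 18-24 h at 37°C. Viability was read by CellTiter-Fluor fluorescence, then Nrf2 activity by luciferase luminescence.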

[15] = molecular target: Glucagon-like peptide 1 receptor (Homo sapiens) (UniProt P43220); test: qHTS of GLP-1 Receptor Agonists: LOPAC Validation (AID 624148); also: potency is read from the fitted curve at half-maximal effect
Chain of UniProt P43220 (P43220 whole entry, looked up): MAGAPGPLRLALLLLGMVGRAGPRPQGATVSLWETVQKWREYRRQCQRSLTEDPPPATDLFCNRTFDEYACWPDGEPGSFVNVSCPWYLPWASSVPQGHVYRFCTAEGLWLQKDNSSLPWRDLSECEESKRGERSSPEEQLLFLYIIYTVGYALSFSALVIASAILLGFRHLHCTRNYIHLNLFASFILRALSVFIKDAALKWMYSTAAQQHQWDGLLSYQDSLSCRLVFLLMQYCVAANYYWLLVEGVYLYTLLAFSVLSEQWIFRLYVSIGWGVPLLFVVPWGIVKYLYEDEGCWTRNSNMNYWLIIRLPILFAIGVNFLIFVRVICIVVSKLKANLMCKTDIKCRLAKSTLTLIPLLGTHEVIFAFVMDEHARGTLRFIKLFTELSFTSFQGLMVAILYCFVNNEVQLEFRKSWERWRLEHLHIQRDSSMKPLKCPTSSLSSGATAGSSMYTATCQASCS
Outline: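 HEK293 cells stably co-expressing GLP-1R and a cAMP-responsive luciferase reporter, plated 12 hours before compound, then incubated 4-6 hr at 37 deg C. Luminescence read 12 min after detection reagent.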

[16] = qHTS Assay for Identifying Gametocytocidal Compounds (AID 743244);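 also: % is scaled to controls: 0 for no effect and ±100 for the full control effect; actives lower the fluorescent signal which means gametocytes are killed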; conditions: P. falciparum 3D7 stage III-V gametocytes, alamarBlue, 72 h; max response: stronger effect = lower value
Outline: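 3D7 gametocytes, stages III–V, 20,000/well; cpd 72 h, 37 °C/5% CO2; + alamarBlue 24 h; fluor. Ex 525/Em 598.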

[17] = molecular target: Lysine-specific demethylase 5B (Homo sapiens) (UniProt Q9UGL1); test: Optimization screen for KDM5B Histone Demethylases FDH coupled qHTS against the LOPAC library (AID 1347166); conditions: KDM5B demethylation, FDH-coupled NADH fluorescence (FDH is formaldehyde dehydrogenase); activity, negative = inhibition: at 57.5 µM (top of the series) unless noted; also: 0% is about no effect
Chain of UniProt Q9UGL1 (Q9UGL1 whole entry, looked up): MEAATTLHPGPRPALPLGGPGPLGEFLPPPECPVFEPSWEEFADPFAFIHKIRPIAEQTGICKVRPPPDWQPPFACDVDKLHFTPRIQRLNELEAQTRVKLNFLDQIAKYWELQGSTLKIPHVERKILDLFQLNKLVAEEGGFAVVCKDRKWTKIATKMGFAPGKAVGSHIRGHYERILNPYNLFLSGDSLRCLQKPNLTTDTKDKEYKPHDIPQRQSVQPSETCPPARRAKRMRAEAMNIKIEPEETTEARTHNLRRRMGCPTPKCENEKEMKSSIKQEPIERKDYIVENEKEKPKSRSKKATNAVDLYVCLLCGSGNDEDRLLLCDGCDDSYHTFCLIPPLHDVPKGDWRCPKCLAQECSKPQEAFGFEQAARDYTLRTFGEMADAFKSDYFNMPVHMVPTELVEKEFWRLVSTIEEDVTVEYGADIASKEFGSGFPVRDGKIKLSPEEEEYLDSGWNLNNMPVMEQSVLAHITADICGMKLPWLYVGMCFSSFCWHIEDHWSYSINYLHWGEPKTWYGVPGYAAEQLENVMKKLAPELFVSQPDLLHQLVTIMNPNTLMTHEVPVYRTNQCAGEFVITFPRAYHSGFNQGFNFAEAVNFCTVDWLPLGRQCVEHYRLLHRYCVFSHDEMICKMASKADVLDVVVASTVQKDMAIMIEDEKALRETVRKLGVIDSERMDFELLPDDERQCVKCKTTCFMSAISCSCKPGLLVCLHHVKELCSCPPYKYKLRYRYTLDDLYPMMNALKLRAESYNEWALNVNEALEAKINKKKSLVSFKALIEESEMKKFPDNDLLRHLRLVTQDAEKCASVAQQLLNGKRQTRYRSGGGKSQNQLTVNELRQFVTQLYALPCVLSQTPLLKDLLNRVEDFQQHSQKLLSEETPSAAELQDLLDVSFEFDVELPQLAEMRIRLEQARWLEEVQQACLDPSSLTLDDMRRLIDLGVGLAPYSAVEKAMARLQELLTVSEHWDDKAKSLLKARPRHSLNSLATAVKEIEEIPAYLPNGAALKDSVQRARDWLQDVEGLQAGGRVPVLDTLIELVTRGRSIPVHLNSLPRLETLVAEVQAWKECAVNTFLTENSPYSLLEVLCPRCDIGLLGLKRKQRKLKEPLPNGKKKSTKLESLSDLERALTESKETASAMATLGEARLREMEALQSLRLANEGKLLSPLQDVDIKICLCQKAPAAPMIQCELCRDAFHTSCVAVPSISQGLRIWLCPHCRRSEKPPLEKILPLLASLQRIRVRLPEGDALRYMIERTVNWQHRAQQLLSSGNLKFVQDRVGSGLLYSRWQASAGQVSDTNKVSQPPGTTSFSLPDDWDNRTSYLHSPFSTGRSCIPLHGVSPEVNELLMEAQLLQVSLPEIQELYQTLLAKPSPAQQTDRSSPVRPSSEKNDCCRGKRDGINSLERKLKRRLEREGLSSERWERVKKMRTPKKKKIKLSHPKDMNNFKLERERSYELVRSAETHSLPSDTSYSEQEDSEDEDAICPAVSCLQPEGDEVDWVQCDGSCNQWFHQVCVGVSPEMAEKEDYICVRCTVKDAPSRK
Outline: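 KDM5BDeltaAP (200nM final) preincubated 10 min with compound, then 12.5uM H3K4Me3, 25uM a-ketoglutarate, ascorbate, Fe(II), NAD+ and FDH added; 50mM HEPES pH 7.5, 0.01% Tween-20. NADH fluorescence (340/450 nm) change over 30 min, room temperature.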

[18] = qHTS to identify inhibitors of the type 1 interferon - major histocompatibility complex class I in skeletal muscle: primary screen against the NCATS LOPAC collection (AID 1347405)
Outline: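 Immortalized human C25cl48 myoblasts with HiBiT knocked into endogenous HLA-B*08:01 were stimulated with 4.0 ng/ml IFN-beta and given compounds in a 7-point, 1:4.3 titration from 46 uM final; after 24 hrs, lytic HiBiT luminescence was read.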
Tags tell the direction and shape of the fitted curve or compound fluorescence and quenching.

CCn1c(=O)[nH]c2cc(Cl)c(Cl)cc21
inactive: Potency [1] | Potency [6] | Potency [8] | Potency [11] | max response [16] 24.6% | Potency [17]
active: Potency [18] 3.16 µM
inconclusive: Potency [2] 3.55 µM [inhibitor, partial curve] | activation [3] 45.3% | activity change, negative = inhibition [4] -8.19% [phenotype inactive] | activity change, negative = inhibition [5] 2.09% | Potency [7] 0.0158 µM [inhibitor, full curve, poor fit] | activity change [9] -48.4% | Potency [10] 37.9 µM [falling, single point] | Potency [12] 20.6 µM [activator, partial curve] | Potency [13] 25.9 µM [inhibitor, partial curve, poor fit] | Potency [14] 18.4 µM [falling, partial curve] | Potency [15] 20.6 µM [activator, partial curve, poor fit]
